# The supplement of paper PMC8728848
# Some of the results follow.
# B1: MGL6A (Homo sapiens) (protein)
# chain: MTRTYENFQYLENKVKVQGFKNGPLPLQSLLQRLCSGPCHLLLSLGLGLLLLVIICVVGFQNSKFQRDLVTLRTDFSNFTSNTVAEIQALTSQGSSLEETIASLKAEVEGFKQERQAVHSEMLLRVQQLVQDLKKLTCQVATLNNNGEEASTEGTCCPVNWVEHQDSCYWFSHSGMSWAEAEKYCQLKNAHLVVINSREEQNFVQKYLGSAYTWMGLSDPEGAWKWVDGTDYATGFQNWKPGQPDDWQGHGLGGGEDCAHFTPDGRWNDDVCQRPYHWVCEAGLGQTSQESH
# Columns and labels:
# Assay in all cases: glycan array binding signal (z-score within array); higher = stronger binding
# Details in all cases: glycan notation: IUPAC condensed, linker removed; mutation: H262T
# [1] = biological target: Fuc(a1-2)[Gal(a1-3)]Gal(b1-4)[Fuc(a1-3)]GlcNAc(b1-3)GalNAc
# Summary of the method: (§1)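 Negative Z-scores can be read as non-binding. The Z-score is calculated within each array and then averaged across arrays of one protein sequence at different concentrations or buffers and across linkers. Arrays, 3228 in all, were curated from the Consortium for Functional Glycomics database and kept only where the protein sequence was available.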
# [2] = biological target: Fuc(a1-2)[Gal(a1-4)]Gal(b1-4)GlcNAc
# Summary of the method: as §1
# [3] = biological target: Fuc(a1-2)[GalNAc(a1-3)]Gal
# Summary of the method: as §1
# [4] = biological target: Fuc(a1-2)[GalNAc(a1-3)]Gal(b1-3)GalNAc(a1-3)[Fuc(a1-2)]Gal(b1-4)GlcNAc
# Summary of the method: as §1
# [5] = biological target: Fuc(a1-2)[GalNAc(a1-3)]Gal(b1-3)GalNAc(b1-3)Gal(a1-4)Gal(b1-4)Glc
# Summary of the method: as §1
# [6] = biological target: Fuc(a1-2)[GalNAc(a1-3)]Gal(b1-3)GlcNAc
# Summary of the method: as §1
# [7] = biological target: Fuc(a1-2)[GalNAc(a1-3)]Gal(b1-3)GlcNAc(b1-2)Man(a1-3)[Fuc(a1-2)[GalNAc(a1-3)]Gal(b1-3)GlcNAc(b1-2)Man(a1-6)]Man(b1-4)GlcNAc(b1-4)GlcNAc
# Summary of the method: as §1
# [8] = biological target: Fuc(a1-2)[GalNAc(a1-3)]Gal(b1-3)GlcNAc(b1-2)Man(a1-3)[Fuc(a1-2)[GalNAc(a1-3)]Gal(b1-3)GlcNAc(b1-2)Man(a1-6)]Man(b1-4)GlcNAc(b1-4)[Fuc(a1-6)]GlcNAc
# Summary of the method: as §1
# [9] = biological target: Fuc(a1-2)[GalNAc(a1-3)]Gal(b1-3)GlcNAc(b1-3)GalNAc
# Summary of the method: as §1
# [10] = biological target: Fuc(a1-2)[GalNAc(a1-3)]Gal(b1-3)GlcNAc(b1-6)GalNAc
# Summary of the method: as §1
# [11] = biological target: Fuc(a1-2)[GalNAc(a1-3)]Gal(b1-4)Glc
# Summary of the method: as §1
# [12] = biological target: Fuc(a1-2)[GalNAc(a1-3)]Gal(b1-4)GlcNAc
# Summary of the method: as §1
# [13] = biological target: Fuc(a1-2)[GalNAc(a1-3)]Gal(b1-4)GlcNAc(b1-2)Man
# Summary of the method: as §1
# [14] = biological target: Fuc(a1-2)[GalNAc(a1-3)]Gal(b1-4)GlcNAc(b1-2)Man(a1-3)[Fuc(a1-2)[GalNAc(a1-3)]Gal(b1-4)GlcNAc(b1-2)Man(a1-6)]Man(b1-4)GlcNAc(b1-4)GlcNAc
# Summary of the method: as §1
# [15] = biological target: Fuc(a1-2)[GalNAc(a1-3)]Gal(b1-4)GlcNAc(b1-2)Man(a1-3)[Fuc(a1-2)[GalNAc(a1-3)]Gal(b1-4)GlcNAc(b1-2)Man(a1-6)]Man(b1-4)GlcNAc(b1-4)[Fuc(a1-6)]GlcNAc
# Summary of the method: as §1
# [16] = biological target: Fuc(a1-2)[GalNAc(a1-3)]Gal(b1-4)GlcNAc(b1-3)Gal(b1-4)GlcNAc
# Summary of the method: as §1
# [17] = biological target: Fuc(a1-2)[GalNAc(a1-3)]Gal(b1-4)GlcNAc(b1-3)Gal(b1-4)GlcNAc(b1-3)Gal(b1-4)GlcNAc
# Summary of the method: as §1
# [18] = biological target: Fuc(a1-2)[GalNAc(a1-3)]Gal(b1-4)GlcNAc(b1-3)GalNAc
# Summary of the method: as §1
# [19] = biological target: Fuc(a1-2)[GalNAc(a1-3)]Gal(b1-4)GlcNAc(b1-3)[Fuc(a1-2)[GalNAc(a1-3)]Gal(b1-4)GlcNAc(b1-6)]GalNAc
# Summary of the method: as §1
# [20] = biological target: Fuc(a1-2)[GalNAc(a1-3)]Gal(b1-4)GlcNAc(b1-6)GalNAc
# Summary of the method: as §1
# [21] = biological target: Fuc(a1-2)[GalNAc(a1-3)]Gal(b1-4)[Fuc(a1-3)]GlcNAc
# Summary of the method: as §1
# [22] = biological target: Fuc(a1-2)[GalNAc(a1-3)]Gal(b1-4)[Fuc(a1-3)]GlcNAc(b1-3)GalNAc
# Summary of the method: as §1
# [23] = biological target: Fuc(a1-2)[GalNAc(a1-4)]Gal(b1-4)GlcNAc
# Summary of the method: as §1
# [24] = biological target: Fuc(a1-2)[GalNAc(b1-3)]Gal
# Summary of the method: as §1
# Fuc(a1-3)GlcNAc = biological target: Fuc(a1-3)GlcNAc
# Summary of the method: as §1
# [25] = biological target: Fuc(a1-3)[Gal(b1-4)]Glc6S
# Summary of the method: as §1
# [26] = biological target: Fuc(a1-3)[Gal(b1-4)]GlcNAc
# Summary of the method: as §1
# [27] = biological target: Fuc(a1-3)[Gal(b1-4)]GlcNAc(b1-2)Man
# Summary of the method: as §1
# [28] = biological target: Fuc(a1-3)[Gal(b1-4)]GlcNAc(b1-2)Man(a1-3)[Fuc(a1-3)[Gal(b1-4)]GlcNAc(b1-2)Man(a1-6)]Man(b1-4)GlcNAc(b1-4)GlcNAc
# Summary of the method: as §1
# [29] = biological target: Fuc(a1-3)[Gal(b1-4)]GlcNAc(b1-2)Man(a1-3)[Fuc(a1-3)[Gal(b1-4)]GlcNAc(b1-2)Man(a1-6)]Man(b1-4)GlcNAc(b1-4)[Fuc(a1-6)]GlcNAc
# Summary of the method: as §1
# [30] = biological target: Fuc(a1-3)[Gal(b1-4)]GlcNAc(b1-3)Gal(b1-3)[Fuc(a1-4)]GlcNAc
# Summary of the method: as §1
# [31] = biological target: Fuc(a1-3)[Gal(b1-4)]GlcNAc(b1-3)Gal(b1-4)[Fuc(a1-3)]GlcNAc
# Summary of the method: as §1
# [32] = biological target: Fuc(a1-3)[Gal(b1-4)]GlcNAc(b1-3)Gal(b1-4)[Fuc(a1-3)]GlcNAc(b1-3)Gal(b1-4)[Fuc(a1-3)]GlcNAc
# Summary of the method: as §1
# [33] = biological target: Fuc(a1-3)[Gal(b1-4)]GlcNAc(b1-3)GalNAc
# Summary of the method: as §1
# [34] = biological target: Fuc(a1-3)[Gal(b1-4)]GlcNAc(b1-6)GalNAc
# Summary of the method: as §1
# [35] = biological target: Fuc(a1-3)[Gal(b1-4)]GlcNAc(b1-6)[Gal(b1-3)GlcNAc(b1-3)]Gal(b1-4)Glc
# Summary of the method: as §1
# [36] = biological target: Fuc(a1-3)[Gal(b1-4)]GlcNAc6S
# Summary of the method: as §1
# [37] = biological target: Fuc(a1-3)[Gal3S(b1-4)]Glc
# Summary of the method: as §1
binder,measurement,setting,value
B1,glycan array binding signal (z-score),[1],-0.176
same,glycan array binding signal (z-score),[2],-0.166
same,glycan array binding signal (z-score),[3],-0.163
same,glycan array binding signal (z-score),[4],-0.171
same,glycan array binding signal (z-score),[5],-0.177
same,glycan array binding signal (z-score),[6],-0.173
same,glycan array binding signal (z-score),[7],-0.172
same,glycan array binding signal (z-score),[8],-0.186
same,glycan array binding signal (z-score),[9],-0.172
same,glycan array binding signal (z-score),[10],5.97
same,glycan array binding signal (z-score),[11],-0.173
same,glycan array binding signal (z-score),[12],-0.178
same,glycan array binding signal (z-score),[13],-0.176
same,glycan array binding signal (z-score),[14],-0.171
same,glycan array binding signal (z-score),[15],-0.171
same,glycan array binding signal (z-score),[16],-0.176
same,glycan array binding signal (z-score),[17],-0.172
same,glycan array binding signal (z-score),[18],-0.178
same,glycan array binding signal (z-score),[19],-0.174
same,glycan array binding signal (z-score),[20],5.98
same,glycan array binding signal (z-score),[21],-0.176
same,glycan array binding signal (z-score),[22],-0.167
same,glycan array binding signal (z-score),[23],4.51
same,glycan array binding signal (z-score),[24],5.17
same,glycan array binding signal (z-score),Fuc(a1-3)GlcNAc,-0.167
same,glycan array binding signal (z-score),[25],-0.155
same,glycan array binding signal (z-score),[26],-0.172
same,glycan array binding signal (z-score),[27],-0.175
same,glycan array binding signal (z-score),[28],-0.18
same,glycan array binding signal (z-score),[29],-0.172
same,glycan array binding signal (z-score),[30],-0.179
same,glycan array binding signal (z-score),[31],-0.168
same,glycan array binding signal (z-score),[32],-0.179
same,glycan array binding signal (z-score),[33],-0.17
same,glycan array binding signal (z-score),[34],-0.164
same,glycan array binding signal (z-score),[35],-0.176
same,glycan array binding signal (z-score),[36],-0.156
same,glycan array binding signal (z-score),[37],-0.171
